Screen size: about 360,000 compounds; about 7,500 (2.1%) were called active. This list was built around the results that the source calls inconclusive (neither active nor inactive); the mix of calls is not that of the screen. The call rests on the fitted dose curve; in most records, active means well fitted cell-killing curve with a large enough effect; inconclusive means small, poorly fitted or top-dose-only effect, or effect the other way, or another doubt; inactive means no such curve, though single readings can be large or run the other way. No potency is given beside an inconclusive call; the fits are too rough.
Assay: qHTS for induction of synthetic lethality in tumor cells producing 2HG: qHTS for the HT-1080-IDH1KD cell line;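 on activity, negative = toxicity: 0% = DMSO wells and -100% = cell-free medium wells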
Settings: HT-1080 IDH1 knockdown viability, ATP luminescence, 48 h; activity, negative = toxicity: at 46.1 µM (top of the series) unless noted
Procedure, shortened: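 % activity derives from luminescence (CellTiter-Glo), normalised to DMSO and no-cell wells. HT-1080-IDH1KD cells, 750/well, had 48 h compound exposure at 37 °C.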
In the case of `CCc1nc2ccc(C(=O)NC3CCN(Cc4ccccc4)CC3)cn2c1N(C)Cc1cccs1`, the Potency is reported as inconclusive [cytotoxic, single point].
For `CCn1c(CNc2ccc(Cl)cc2)nnc1SCc1ccc(C)cc1`, the Potency was inconclusive [cytotoxic, single point].
For `C=CCN(CC=C)S(=O)(=O)c1ccc2nc(NC(=O)C(C)C)sc2c1`, the Potency was active: 7.31 µM.
In the case of `C/C(=N\NC(=O)c1ccccc1NC(=O)c1ccc(Cl)cc1)c1ccncc1`, the Potency is reported as active: 1.3 µM.
With `CCc1ccc(-c2cc(C(=O)NCc3ccco3)c3ccccc3n2)s1` the Potency was inconclusive [cytotoxic, single point].
For `Cc1cc(Cl)ccc1N=C1N=C(N)c2ccccc21`, the Potency was inconclusive [cytotoxic, single point].
With `CC(C)CCN1C(Nc2ccccc2)=NC[C@@H]1CC(C)C` the Potency was “inactive”.
In the case of `CCCNC(=O)Cn1sc2nc(C)cc(C)c2c1=O`, the Potency is reported as inconclusive [cytotoxic, single point].
In the case of `COc1ccccc1CNc1nc(Nc2ccc(C)cc2C)c2sccc2n1`, the Potency is reported as active: 23.1 µM.
With `C/C(=N\N(c1ccccc1)c1ccccc1)c1ccc(O)cc1` the Potency was inconclusive [cytotoxic, partial curve].
In the case of `Cc1cc(-c2ccc(C(C)C)c(S(=O)(=O)N3CCN(c4ccccc4)CC3)c2)on1`, the Potency is reported as active: 1.84 µM.
For `CN(C)C=C1C(=O)c2ccccc2C1=O`, the Potency was inconclusive [cytotoxic, partial curve].
With `Cc1cc(Nc2cccc(Cl)c2)nc(NCc2ccccc2)n1` the Potency was inconclusive [cytotoxic, partial curve].
In the case of `Cc1ccc(-c2cc(-c3cccc(F)c3)n[nH]2)c(O)c1`, the Potency is reported as inconclusive [cytotoxic, single point].
For `COc1ccc(C(C(=O)NC2CCCCC2)N(C(=O)c2ccco2)c2ccccc2OC)cc1` (configuration not stated), the activity, negative = toxicity was inconclusive: -25.2% [cytotoxic].
With `CC(C)C[C@H](NC(=O)c1[nH]cnc1C(=O)N[C@@H](Cc1ccccc1)C(=O)OC(C)(C)C)C(=O)OCc1ccccc1` the Potency was inconclusive [cytotoxic, partial curve].
For `CCN=C1S/C(=C\c2cc(OCC)c(O)cc2Br)C(=O)N1CC`, the Potency was active: 20.6 µM.
With `O=C(N/N=C/c1c[nH]c2ccccc12)c1ccc2c(c1)OCCO2` the Potency was active: 20.6 µM.
With `COc1ccccc1NC(=O)Cc1csc(N)n1` the Potency was “inactive”.
In the case of `COc1ccc(/C=N/NC(=O)c2ccc(NC(=O)C3CCCCC3)cc2)cc1O`, the Potency is reported as inconclusive [cytotoxic, single point].
In the case of `O=C(Nc1nc(-c2ccccc2)cs1)C1CCCCN1S(=O)(=O)c1ccccc1` (configuration not stated), the Potency is reported as inconclusive [cytotoxic, single point].
In the case of `Nc1cc(=O)[nH]c2ncnn12`, the activity, negative = toxicity is reported as inconclusive: -1.5% [cytotoxic].
With `COc1ccc(O)c(/C=N/NC(=O)c2cccc(N3CCCC3=O)c2)c1` the Potency was inconclusive [cytotoxic, full curve].
For `Cc1nn(-c2ccccc2)c(C)c1NC(=O)COc1ccc(Br)cc1Cl`, the Potency was inconclusive [cytotoxic, single point].
For `CC1(CCc2ccccc2)NC(=S)N(c2ccccc2)N1` (configuration not stated), the Potency was inconclusive [cytotoxic, single point].
In the case of `COc1ccc(C)cc1Nc1n[n+](-c2ccccc2)c(-c2c(Cl)cccc2Cl)s1`, the Potency is reported as inconclusive [cytotoxic, single point].
In the case of `CC(=O)c1ccc2c(c1)C1C=CCC1C(c1cc3c(cc1Br)OCO3)N2` (configuration not stated), the Potency is reported as active: 3.66 µM.
For `OC(CN(Cc1ccccc1)Cc1ccccc1)c1ccccc1` (configuration not stated), the Potency was inconclusive [cytotoxic, single point].
In the case of `CCc1cc2c(=O)n(Cc3ccco3)c(SCC(=O)N(C)C3CCS(=O)(=O)C3)nc2s1` (configuration not stated), the Potency is reported as “inactive”.
In the case of `NC(=O)c1cccc(-c2ccnc3c2CC(C(=O)NCc2cccc(Cl)c2)O3)c1` (configuration not stated), the Potency is reported as active: 9.2 µM.
In the case of `Cc1ccc(NC(=O)c2cc([N+](=O)[O-])ccc2NCc2cccnc2)cc1Cl`, the Potency is reported as inconclusive [cytotoxic, partial curve].
In the case of `O=C(CN1c2ccccc2Sc2ccccc21)NNC(=O)Nc1cccc(Cl)c1`, the Potency is reported as active: 11.6 µM.
In the case of `CCCCn1nnnc1C(c1cc2ccccc2o1)N1CCN(c2ccncc2)CC1` (configuration not stated), the Potency is reported as inconclusive [cytotoxic, single point].
In the case of `Cc1ccc(CSc2nnc(-c3ccc4c(c3)OCO4)o2)cc1`, the Potency is reported as “inactive”.
For `O=c1cc(CSc2nc(NCc3ccccc3)c3ccccc3n2)nc2ccc(Cl)cn12`, the Potency was “inactive”.
In the case of `O=[N+]([O-])c1ccccc1NC(=S)N/N=C/c1ccc(O)c(O)c1`, the Potency is reported as inconclusive [cytotoxic, partial curve].
With `O=C(COC(=O)CNC(=O)C1CCCCC1)Nc1ccc2c(c1)OCCO2` the Potency was “inactive”.
In the case of `Cc1c(/C=N/NC(=O)c2sc3ccccc3c2Cl)cnn1C`, the Potency is reported as inconclusive [cytotoxic, single point].
With `O=C(NC(c1ccc(Cl)cc1)c1ccccn1)C1CCN(CCOc2ccc(Cl)cc2Cl)CC1` (configuration not stated) the Potency was inconclusive [cytotoxic, single point].
With `Oc1ccc(/C=N/NC(=S)Nc2cccnc2)c(O)c1` the Potency was inconclusive [cytotoxic, partial curve].
For `CC(C)c1ccc(/C=C/c2ccc(=O)n(C)n2)cc1`, the Potency was “inactive”.
In the case of `CCOC(=O)c1[nH]c(C)c(C(=O)Nc2ccccc2F)c1C`, the Potency is reported as inconclusive [cytotoxic, partial curve].
For `Cc1cc(C)nc(NC(=O)Nc2ccc(F)cc2F)n1`, the Potency was inconclusive [rising, partial curve].
With `C=CCn1c(=NC(=O)c2sc3ccccc3c2Cl)sc2cc(S(N)(=O)=O)ccc21` the Potency was inconclusive [cytotoxic, single point].
For `CC(C)n1c(-c2ccccc2F)n[nH]c1=S`, the Potency was inconclusive [cytotoxic, single point].
With `Cc1noc(C)c1NC(=O)Nc1ccc2c(c1)C(=O)N([C@H](C)CO)C[C@H](C)[C@@H](CN(C)S(=O)(=O)c1c(C)noc1C)O2` the Potency was “inactive”.
With `Cc1cc(C)c(C#N)c(N2CCN(Cc3ccccc3)CC2)n1` the Potency was inconclusive [cytotoxic, single point].
For `CC1=C(NCCc2ccccc2)CCC1=O`, the Potency was “inactive”.
With `O=C(CN1c2ccccc2Sc2ccccc21)NNC(=O)Nc1ccc(Cl)cc1` the Potency was active: 20.6 µM.
For `Cc1ccc(OCC(=O)N/N=C/C=C/c2ccco2)c(Br)c1`, the Potency was inconclusive [cytotoxic, single point].
In the case of `COc1ccc(CN2CCC[C@]3(N[C@H](c4ccc(OC)cc4)[C@@H]4C(=O)N(Cc5ccccc5)C(=O)[C@@H]43)C2=O)cc1`, the Potency is reported as “inactive”.
With `C=CCn1c(-c2sccc2C)n[nH]c1=S` the Potency was “inactive”.
With `CC(=O)Nc1ccc(NC(=O)C(=O)NCC(c2ccco2)N2CCc3ccccc32)cc1` (configuration not stated) the Potency was inconclusive [cytotoxic, single point].
With `CN1CCN(NC(=O)c2cn(-c3ccccc3)nc2-c2cccc(Br)c2)CC1` the Potency was inconclusive [cytotoxic, single point].
In the case of `O=C(NCc1ccccc1CN1CCCC1)c1ccc(S(=O)(=O)Nc2ccccc2)cc1`, the Potency is reported as inconclusive [cytotoxic, partial curve].
With `CCCC(=O)N1CCC1(C)C(=O)Nc1ncc(C(=O)OC)s1` (configuration not stated) the Potency was inconclusive [rising, single point].
For `CCOc1ccc2[nH]c(=O)c(CN(Cc3ccco3)C(CC)c3nnnn3Cc3ccccc3)cc2c1` (configuration not stated), the Potency was inconclusive [cytotoxic, single point].
In the case of `COc1ccc(CN(Cc2ccccc2)C(=O)c2ccncc2)cc1COc1ccc(NC(C)=O)cc1`, the Potency is reported as “inactive”.
For `COc1ccc(NC(=O)c2cc(C)nc3ccccc23)cc1S(=O)(=O)Nc1ccccc1Cl`, the Potency was “inactive”.
With `Cc1cccc(NC(=O)c2oc(=O)c3ccccc3c2-c2ccccc2)c1C` the Potency was inconclusive [cytotoxic, full curve].
With `O=[N+]([O-])c1cc(CN2CCCC2)c2cccnc2c1O` the Potency was inconclusive [cytotoxic, single point].
For `N#Cc1c(N)c(C#N)c(-c2ccc3c(c2)OCO3)c2c1CCCC2`, the Potency was “inactive”.
For `CCOC(=O)c1ccc(NC(=O)CSc2nnc(-c3cccs3)n2CC)cc1`, the Potency was inconclusive [cytotoxic, single point].
In the case of `C[C@@H]1CN([C@H](C)CO)C(=O)CCCn2nncc2CO[C@@H]1CN(C)C(=O)Nc1ccnc(N2CCOCC2)c1`, the Potency is reported as “inactive”.
In the case of `CCOc1ccc(Cl)cc1C1=CC(=O)C[C@H](c2ccc(OC)cc2)C1`, the Potency is reported as active: 4.11 µM.
For `COC(CC(=O)NNC(=S)Nc1ccccc1)OC`, the Potency was inconclusive [rising, single point].
For `O=C(CN1CCN(c2ccc(O)cc2)CC1)Nc1cc([N+](=O)[O-])ccc1Cl`, the Potency was “inactive”.
For `CN(C(=O)CSc1nc2scc(-c3ccccc3)c2c(=O)[nH]1)c1ccccc1`, the Potency was “inactive”.
With `N#CCC(=O)Nc1ccc(C(=O)OCC(=O)Nc2ccccc2-c2ccccc2)cc1` the Potency was inconclusive [rising, single point].
With `CCn1ncc(/C=N\NC(=O)COc2cc(C)cc(C)c2)c1C` the Potency was inconclusive [cytotoxic, single point].
With `Cc1ccc(-c2[nH]c3cc(C(=O)NCCCn4ccnc4)ccc3c(=O)c2O)cc1` the Potency was “inactive”.
In the case of `C=CCNC(=O)CN1CCN(C(c2ccccc2)c2ccccc2)CC1`, the Potency is reported as “inactive”.
Potency means the concentration at half of the fitted maximal effect; tags describe the fitted curve by direction and shape.
